Measured values published in paper PMC7139218, “Structural Basis for Rab8a Recruitment of RILPL2 via LRRK2 Phosphorylation of Switch 2” (Structure(London, England:1993), 2020).
Results are given in words; binding and its absence hold for the method and conditions named. For part of these data: In cells and extracts the contact can be indirect. Some results given as binding are weak or reduced against the parent protein; the word gives no strength. For part of these data: Where a sequence is shown, tags or fusion partners need not be part of it. Values belong to the substance of their own block, whether it stands above or below them.

Amino acid sequences for entries named in this document (tags omitted). A change or cut given only in a name is not applied to a line headed by its entry. Chains listed by the source or under a name are the forms on record and can include a tag or linker. Residues count along the entry.
UniProt Q99104, residues 1462-1853: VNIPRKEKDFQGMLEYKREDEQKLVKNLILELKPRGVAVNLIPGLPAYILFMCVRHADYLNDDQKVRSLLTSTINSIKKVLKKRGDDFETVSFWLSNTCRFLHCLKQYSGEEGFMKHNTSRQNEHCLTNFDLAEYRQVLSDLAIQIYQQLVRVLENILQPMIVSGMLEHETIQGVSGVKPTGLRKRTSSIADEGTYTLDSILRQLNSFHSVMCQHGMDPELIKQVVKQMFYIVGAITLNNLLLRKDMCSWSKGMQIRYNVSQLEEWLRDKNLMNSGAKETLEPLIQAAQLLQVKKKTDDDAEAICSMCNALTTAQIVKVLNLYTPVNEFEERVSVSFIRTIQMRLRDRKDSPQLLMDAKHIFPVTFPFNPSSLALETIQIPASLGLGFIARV
UniProt P61006: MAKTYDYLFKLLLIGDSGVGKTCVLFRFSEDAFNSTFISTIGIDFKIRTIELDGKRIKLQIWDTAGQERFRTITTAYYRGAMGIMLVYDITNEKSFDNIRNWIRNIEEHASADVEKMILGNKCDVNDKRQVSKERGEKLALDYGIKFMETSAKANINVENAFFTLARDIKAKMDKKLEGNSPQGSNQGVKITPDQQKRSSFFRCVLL
non-phosphorylated Rab8a(GTP), residues 1-181, Q67L (P61006, form named): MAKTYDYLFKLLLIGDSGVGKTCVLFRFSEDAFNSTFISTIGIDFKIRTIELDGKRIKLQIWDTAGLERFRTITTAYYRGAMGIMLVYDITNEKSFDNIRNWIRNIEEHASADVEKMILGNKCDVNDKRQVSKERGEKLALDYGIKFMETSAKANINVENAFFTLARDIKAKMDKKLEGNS
UniProt P61026: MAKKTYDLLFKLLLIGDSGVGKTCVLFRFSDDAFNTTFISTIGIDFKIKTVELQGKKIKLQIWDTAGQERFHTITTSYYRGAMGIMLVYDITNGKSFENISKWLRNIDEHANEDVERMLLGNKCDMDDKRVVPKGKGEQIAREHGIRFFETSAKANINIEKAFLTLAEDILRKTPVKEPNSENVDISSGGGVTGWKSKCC

Columns and labels:
[1] = molecular target: T1, His6-tagged RILPL2 (full length, 1-211) (Homo sapiens (Human), UniProt Q969X0); assay: pull-down; His6-RILPL2 (full length) bait on Ni2+-agarose, (p)Rab8a prey, in the presence of MyoVa(GTD); bait and prey 2.5 μM; 20 mM Tris pH 8.0, 300 mM NaCl, 20 mM imidazole, 5 mM MgCl2; Coomassie stain, densitometry; both purified
T1 chain: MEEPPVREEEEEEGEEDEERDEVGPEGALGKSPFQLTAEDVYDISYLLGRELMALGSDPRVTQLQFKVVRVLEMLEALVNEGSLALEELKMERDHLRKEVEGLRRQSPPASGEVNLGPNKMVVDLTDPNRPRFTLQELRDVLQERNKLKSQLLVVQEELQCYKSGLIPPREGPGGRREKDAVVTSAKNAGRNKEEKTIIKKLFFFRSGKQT

[2] = molecular target: T2, RILPL2-GFP WT (full length) (human) (UniProt Q969X0); assay: co-IP; HEK293 cells co-expressing Flag-LRRK2 (R1441G or Y1699C), HA-Rab and GFP-tagged effector, no MLi-2; GFP fusion precipitated with GFP binder Sepharose, 1 h, washed in 50 mM Tris-HCl pH 7.5, 150 mM NaCl; immunoblot
T2 sequence: T1 chain

JIP4-GFP (full length) [3] = molecular target: T3, JIP4-GFP (full length) (UniProt O60271); assay: co-IP; as a7, but cells treated with the LRRK2 inhibitor MLi-2 (100 nM) for 90 min before lysis
T3 sequence: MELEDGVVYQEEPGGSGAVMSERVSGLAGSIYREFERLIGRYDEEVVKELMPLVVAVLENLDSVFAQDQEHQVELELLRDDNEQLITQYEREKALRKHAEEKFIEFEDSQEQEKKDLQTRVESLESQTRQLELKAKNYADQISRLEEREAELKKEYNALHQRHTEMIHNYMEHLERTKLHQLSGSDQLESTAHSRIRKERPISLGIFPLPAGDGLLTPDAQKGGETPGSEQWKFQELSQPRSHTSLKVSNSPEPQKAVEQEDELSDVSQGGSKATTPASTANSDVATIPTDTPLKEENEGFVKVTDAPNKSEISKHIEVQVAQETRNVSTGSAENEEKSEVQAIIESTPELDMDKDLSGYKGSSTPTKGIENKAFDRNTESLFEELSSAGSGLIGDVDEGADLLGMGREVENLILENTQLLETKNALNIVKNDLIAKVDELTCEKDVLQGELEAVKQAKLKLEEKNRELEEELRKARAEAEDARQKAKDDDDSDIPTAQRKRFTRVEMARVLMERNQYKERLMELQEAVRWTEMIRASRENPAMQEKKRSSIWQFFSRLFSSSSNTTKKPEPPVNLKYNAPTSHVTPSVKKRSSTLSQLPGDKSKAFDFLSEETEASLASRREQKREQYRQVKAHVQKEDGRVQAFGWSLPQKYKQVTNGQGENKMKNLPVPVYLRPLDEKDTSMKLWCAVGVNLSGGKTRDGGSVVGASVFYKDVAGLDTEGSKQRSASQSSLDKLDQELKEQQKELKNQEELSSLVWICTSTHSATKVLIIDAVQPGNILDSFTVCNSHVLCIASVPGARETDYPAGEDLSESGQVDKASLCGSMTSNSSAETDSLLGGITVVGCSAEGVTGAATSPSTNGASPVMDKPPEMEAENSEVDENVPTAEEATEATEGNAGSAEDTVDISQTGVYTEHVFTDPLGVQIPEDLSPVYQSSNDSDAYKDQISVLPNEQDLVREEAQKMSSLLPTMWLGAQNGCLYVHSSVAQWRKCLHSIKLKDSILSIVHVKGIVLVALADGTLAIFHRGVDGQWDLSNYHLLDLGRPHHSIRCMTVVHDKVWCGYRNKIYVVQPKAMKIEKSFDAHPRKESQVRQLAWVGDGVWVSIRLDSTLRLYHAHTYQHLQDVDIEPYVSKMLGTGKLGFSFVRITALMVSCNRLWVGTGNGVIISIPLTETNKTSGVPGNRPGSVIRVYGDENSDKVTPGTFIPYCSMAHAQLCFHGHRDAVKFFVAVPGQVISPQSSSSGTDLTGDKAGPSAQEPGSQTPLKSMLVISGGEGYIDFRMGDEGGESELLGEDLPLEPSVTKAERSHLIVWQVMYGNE

JIP3-GFP (full length) [4] = molecular target: T4, JIP3-GFP (full length) (UniProt Q9UPT6); assay: as above
T4 sequence: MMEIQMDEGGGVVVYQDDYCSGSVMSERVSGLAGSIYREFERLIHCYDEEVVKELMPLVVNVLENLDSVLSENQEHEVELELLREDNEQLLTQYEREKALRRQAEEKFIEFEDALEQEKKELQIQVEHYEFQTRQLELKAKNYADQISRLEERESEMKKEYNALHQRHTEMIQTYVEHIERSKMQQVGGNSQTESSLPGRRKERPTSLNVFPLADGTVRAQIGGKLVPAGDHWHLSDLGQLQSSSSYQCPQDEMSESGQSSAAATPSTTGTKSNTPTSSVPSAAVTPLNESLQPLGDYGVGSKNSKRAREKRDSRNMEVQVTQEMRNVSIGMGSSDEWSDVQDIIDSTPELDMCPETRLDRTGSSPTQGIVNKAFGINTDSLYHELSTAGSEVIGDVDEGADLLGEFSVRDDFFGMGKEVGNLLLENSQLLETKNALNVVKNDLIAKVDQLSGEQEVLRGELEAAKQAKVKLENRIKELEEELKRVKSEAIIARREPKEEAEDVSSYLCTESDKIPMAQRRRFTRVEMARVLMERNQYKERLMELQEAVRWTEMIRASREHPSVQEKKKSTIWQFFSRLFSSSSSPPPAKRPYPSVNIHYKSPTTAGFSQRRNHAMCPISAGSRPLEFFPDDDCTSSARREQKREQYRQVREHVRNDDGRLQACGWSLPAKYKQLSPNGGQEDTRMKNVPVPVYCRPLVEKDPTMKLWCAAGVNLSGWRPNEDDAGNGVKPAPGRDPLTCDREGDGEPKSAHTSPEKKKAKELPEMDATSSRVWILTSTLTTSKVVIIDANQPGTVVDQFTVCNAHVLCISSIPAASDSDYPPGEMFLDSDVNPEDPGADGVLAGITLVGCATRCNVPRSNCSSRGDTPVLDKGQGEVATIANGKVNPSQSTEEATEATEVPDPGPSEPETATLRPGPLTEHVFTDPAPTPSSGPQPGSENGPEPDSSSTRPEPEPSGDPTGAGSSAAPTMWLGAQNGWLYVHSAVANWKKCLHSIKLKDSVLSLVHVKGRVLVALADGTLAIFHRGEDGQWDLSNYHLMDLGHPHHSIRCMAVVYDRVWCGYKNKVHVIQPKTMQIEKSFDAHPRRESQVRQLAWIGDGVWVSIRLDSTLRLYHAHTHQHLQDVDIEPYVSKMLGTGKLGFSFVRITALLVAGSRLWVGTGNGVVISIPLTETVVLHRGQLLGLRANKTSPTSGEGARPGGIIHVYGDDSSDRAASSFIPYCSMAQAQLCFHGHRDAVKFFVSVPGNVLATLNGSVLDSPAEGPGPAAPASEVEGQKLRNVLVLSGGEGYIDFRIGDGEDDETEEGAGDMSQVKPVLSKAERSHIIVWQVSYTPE

[5] = molecular target: His6-tagged MyoVa GTD (1462-1853) (UniProt Q99104); assay: pull-down; control: His6-tagged MyoVa GTD bait on Ni2+-agarose, pRab8a or Rab8a prey, no RILPL2; both purified
JIP4-GFP (full length) [6] = molecular target: T3, JIP4-GFP (full length); assay: co-IP; HEK293 cells co-expressing Flag-LRRK2 (R1441G or Y1699C), HA-Rab and GFP-tagged effector, no MLi-2; GFP fusion precipitated with GFP binder Sepharose, 1 h, washed in 50 mM Tris-HCl pH 7.5, 150 mM NaCl; immunoblot
JIP3-GFP (full length) [7] = molecular target: T4, JIP3-GFP (full length); assay: as above
[8] = molecular target: T1, His6-tagged RILPL2 (full length, 1-211); assay: pull-down; His6-RILPL2 (full length) bait on Ni2+-agarose, untagged Rab8a species as prey, 10 μM each; 20 mM Tris pH 8.0, 300 mM NaCl, 20 mM imidazole, 5 mM MgCl2, 10 mM β-mercaptoethanol; Coomassie stain; both purified

Substance: HA-Rab8a T4A, LRRK2-phosphorylated (from UniProt P61006 1-207)
- binding [2]: binds

Substance: HA-Rab8a K58A, LRRK2-phosphorylated (from UniProt P61006 1-207)
- binding [2]: binds

Substance: HA-Rab8a[Q67L], LRRK2-phosphorylated (from UniProt P61006 1-207)
- binding [2]: binds

Substance: HA-Rab10 WT, LRRK2-phosphorylated (pT73) (from UniProt P61026 1-200)
- binding (JIP4-GFP (full length) [6]): binds
- binding (JIP3-GFP (full length) [7]): binds

Substance: T72 phosphorylated Rab8a(GDP), wild type, residues 1-181 (from UniProt P61006 1-181) (domain or fragment)
- binding [8]: no binding (tested: 10 μM)

Now from value to substance:

- binding [1]: binds
Substance: globular tail domain (GTD) of myosin Va (1462-1853) (from UniProt Q99104 1462-1853) (domain or fragment)

- binding (JIP4-GFP (full length) [3]): binds weakly
- binding (JIP3-GFP (full length) [4]): binds weakly
Substance: HA-Rab8a WT from cells treated with the LRRK2 inhibitor MLi-2 (dephosphorylated) (from UniProt P61006 1-207)

- binding [2]: no binding
Substance: HA-Rab8a[T22N] (from UniProt P61006 1-207)

- binding [5]: no binding
Substance: T72 phosphorylated Rab8a(GTP), residues 1-181, Q67L (from UniProt P61006 1-181) (domain or fragment)

- binding [5]: no binding
Substance: non-phosphorylated Rab8a(GTP), residues 1-181, Q67L (from UniProt P61006 1-181) (domain or fragment)
